# Data taken from the supplement of paper PMC8728848.
# This is one part of the list.
# B1: Gal 3C (Homo sapiens), P17931 (protein)
# chain: YGAPAGPLIVPYNLPLPGGVVPRMLITILGTVKPNANRIALDFQRGNDVAFHFNPRFNENNRRVIVCNTKLDNNWGREERQSVFPFESGKPFKIQVLVEPDHFKVAVNDAHLLQYNHRVKKLNEISKLGISGDIDLTSASYTMI
# Tests used:
# Experiment in all cases: glycan array binding signal (z-score within array); higher = stronger binding
# Details in all cases: glycan notation: IUPAC condensed, linker removed
# [1] = molecular target: Gal(b1-4)GlcNAc(b1-3)Gal(b1-4)GlcNAc(b1-2)Man(a1-3)[Gal(b1-4)GlcNAc(b1-3)Gal(b1-4)GlcNAc(b1-2)Man(a1-6)]Man(b1-4)GlcNAc(b1-4)[Fuc(a1-6)]GlcNAc
# Outline: (§1)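 Glycan array binding is given as a within-array Z-score, which can be read as non-binding when negative. The arrays, 3228 of them, came from the Consortium for Functional Glycomics database and were retained only where the protein sequence was available. Z-scores were averaged across arrays of the same protein sequence at different concentrations or buffers and across linkers.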
# [2] = molecular target: Gal(b1-4)GlcNAc(b1-3)Gal(b1-4)GlcNAc(b1-2)[Gal(b1-4)GlcNAc(b1-3)Gal(b1-4)GlcNAc(b1-6)]Man(a1-6)[Gal(b1-4)GlcNAc(b1-3)Gal(b1-4)GlcNAc(b1-2)Man(a1-3)]Man(b1-4)GlcNAc(b1-4)GlcNAc
# Outline: as §1
# [3] = molecular target: Gal(b1-4)GlcNAc(b1-3)Gal(b1-4)GlcNAc(b1-2)[Gal(b1-4)GlcNAc(b1-3)Gal(b1-4)GlcNAc(b1-6)]Man(a1-6)[Gal(b1-4)GlcNAc(b1-3)Gal(b1-4)GlcNAc(b1-2)Man(a1-3)]Man(b1-4)GlcNAc(b1-4)[Fuc(a1-6)]GlcNAc
# Outline: as §1
# [4] = molecular target: Gal(b1-4)GlcNAc(b1-3)Gal(b1-4)GlcNAc(b1-3)Gal(b1-4)GlcNAc
# Outline: as §1
# [5] = molecular target: Gal(b1-4)GlcNAc(b1-3)Gal(b1-4)GlcNAc(b1-3)Gal(b1-4)GlcNAc(b1-2)Man(a1-3)[Gal(b1-4)GlcNAc(b1-3)Gal(b1-4)GlcNAc(b1-3)Gal(b1-4)GlcNAc(b1-2)Man(a1-6)]Man(b1-4)GlcNAc(b1-4)GlcNAc
# Outline: as §1
# [6] = molecular target: Gal(b1-4)GlcNAc(b1-3)Gal(b1-4)GlcNAc(b1-3)Gal(b1-4)GlcNAc(b1-2)Man(a1-3)[Gal(b1-4)GlcNAc(b1-3)Gal(b1-4)GlcNAc(b1-3)Gal(b1-4)GlcNAc(b1-2)Man(a1-6)]Man(b1-4)GlcNAc(b1-4)[Fuc(a1-6)]GlcNAc
# Outline: as §1
# [7] = molecular target: Gal(b1-4)GlcNAc(b1-3)Gal(b1-4)GlcNAc(b1-3)Gal(b1-4)GlcNAc(b1-2)[Gal(b1-4)GlcNAc(b1-3)Gal(b1-4)GlcNAc(b1-3)Gal(b1-4)GlcNAc(b1-6)]Man(a1-6)[Gal(b1-4)GlcNAc(b1-3)Gal(b1-4)GlcNAc(b1-3)Gal(b1-4)GlcNAc(b1-2)Man(a1-3)]Man(b1-4)GlcNAc(b1-4)[Fuc(a1-6)]GlcNAc
# Outline: as §1
# [8] = molecular target: Gal(b1-4)GlcNAc(b1-3)Gal(b1-4)GlcNAc(b1-3)Gal(b1-4)GlcNAc(b1-3)Gal(b1-4)GlcNAc(b1-2)Man(a1-3)[Gal(b1-4)GlcNAc(b1-3)Gal(b1-4)GlcNAc(b1-3)Gal(b1-4)GlcNAc(b1-3)Gal(b1-4)GlcNAc(b1-2)Man(a1-6)]Man(b1-4)GlcNAc(b1-4)GlcNAc
# Outline: as §1
# [9] = molecular target: Gal(b1-4)GlcNAc(b1-3)Gal(b1-4)GlcNAc(b1-3)Gal(b1-4)GlcNAc(b1-3)Gal(b1-4)GlcNAc(b1-2)Man(a1-3)[Gal(b1-4)GlcNAc(b1-3)Gal(b1-4)GlcNAc(b1-3)Gal(b1-4)GlcNAc(b1-3)Gal(b1-4)GlcNAc(b1-2)Man(a1-6)]Man(b1-4)GlcNAc(b1-4)[Fuc(a1-6)]GlcNAc
# Outline: as §1
# [10] = molecular target: Gal(b1-4)GlcNAc(b1-3)Gal(b1-4)GlcNAc(b1-3)Gal(b1-4)GlcNAc(b1-3)Gal(b1-4)GlcNAc(b1-2)[Gal(b1-4)GlcNAc(b1-3)Gal(b1-4)GlcNAc(b1-3)Gal(b1-4)GlcNAc(b1-3)Gal(b1-4)GlcNAc(b1-6)]Man(a1-6)[Gal(b1-4)GlcNAc(b1-3)Gal(b1-4)GlcNAc(b1-3)Gal(b1-4)GlcNAc(b1-3)Gal(b1-4)GlcNAc(b1-2)Man(a1-3)]Man(b1-4)GlcNAc(b1-4)[Fuc(a1-6)]GlcNAc
# Outline: as §1
# [11] = molecular target: Gal(b1-4)GlcNAc(b1-3)Gal(b1-4)GlcNAc(b1-3)Gal(b1-4)GlcNAc(b1-3)Gal(b1-4)GlcNAc(b1-3)Gal(b1-4)GlcNAc(b1-2)Man(a1-3)[Gal(b1-4)GlcNAc(b1-3)Gal(b1-4)GlcNAc(b1-3)Gal(b1-4)GlcNAc(b1-3)Gal(b1-4)GlcNAc(b1-3)Gal(b1-4)GlcNAc(b1-2)Man(a1-6)]Man(b1-4)GlcNAc(b1-4)GlcNAc
# Outline: as §1
# [12] = molecular target: Gal(b1-4)GlcNAc(b1-3)Gal(b1-4)GlcNAc(b1-3)Gal(b1-4)GlcNAc(b1-3)Gal(b1-4)GlcNAc(b1-3)Gal(b1-4)GlcNAc(b1-2)Man(a1-3)[Gal(b1-4)GlcNAc(b1-3)Gal(b1-4)GlcNAc(b1-3)Gal(b1-4)GlcNAc(b1-3)Gal(b1-4)GlcNAc(b1-3)Gal(b1-4)GlcNAc(b1-2)Man(a1-6)]Man(b1-4)GlcNAc(b1-4)[Fuc(a1-6)]GlcNAc
# Outline: as §1
# [13] = molecular target: Gal(b1-4)GlcNAc(b1-3)Gal(b1-4)GlcNAc(b1-3)Gal(b1-4)GlcNAc(b1-3)Gal(b1-4)GlcNAc(b1-3)Gal(b1-4)GlcNAc(b1-2)[Gal(b1-4)GlcNAc(b1-3)Gal(b1-4)GlcNAc(b1-3)Gal(b1-4)GlcNAc(b1-3)Gal(b1-4)GlcNAc(b1-3)Gal(b1-4)GlcNAc(b1-6)]Man(a1-6)[Gal(b1-4)GlcNAc(b1-3)Gal(b1-4)GlcNAc(b1-3)Gal(b1-4)GlcNAc(b1-3)Gal(b1-4)GlcNAc(b1-3)Gal(b1-4)GlcNAc(b1-2)Man(a1-3)]Man(b1-4)GlcNAc(b1-4)[Fuc(a1-6)]GlcNAc
# Outline: as §1
# [14] = molecular target: Gal(b1-4)GlcNAc(b1-3)Gal(b1-4)GlcNAc(b1-3)Gal(b1-4)GlcNAc(b1-3)Gal(b1-4)GlcNAc(b1-3)Gal(b1-4)GlcNAc(b1-3)Gal(b1-4)GlcNAc(b1-2)Man(a1-3)[Gal(b1-4)GlcNAc(b1-3)Gal(b1-4)GlcNAc(b1-3)Gal(b1-4)GlcNAc(b1-3)Gal(b1-4)GlcNAc(b1-3)Gal(b1-4)GlcNAc(b1-3)Gal(b1-4)GlcNAc(b1-2)Man(a1-6)]Man(b1-4)GlcNAc(b1-4)GlcNAc
# Outline: as §1
# [15] = molecular target: Gal(b1-4)GlcNAc(b1-3)Gal(b1-4)GlcNAc(b1-3)GalNAc
# Outline: as §1
# [16] = molecular target: Gal(b1-4)GlcNAc(b1-3)Gal(b1-4)GlcNAc(b1-3)[Gal(b1-4)GlcNAc(b1-3)Gal(b1-4)GlcNAc(b1-6)]GalNAc
# Outline: as §1
# [17] = molecular target: Gal(b1-4)GlcNAc(b1-3)Gal(b1-4)GlcNAc(b1-6)[Gal(b1-3)]GalNAc
# Outline: as §1
# [18] = molecular target: Gal(b1-4)GlcNAc(b1-3)Gal(b1-4)[Fuc(a1-3)]GlcNAc(b1-3)Gal(b1-4)[Fuc(a1-3)]GlcNAc
# Outline: as §1
# [19] = molecular target: Gal(b1-4)GlcNAc(b1-3)GalNAc
# Outline: as §1
# [20] = molecular target: Gal(b1-4)GlcNAc(b1-3)[Fuc(a1-3)GlcNAc(b1-6)]Gal(b1-4)Glc
# Outline: as §1
# [21] = molecular target: Gal(b1-4)GlcNAc(b1-3)[Gal(b1-4)GlcNAc(b1-6)]Gal(b1-4)GlcNAc
# Outline: as §1
# [22] = molecular target: Gal(b1-4)GlcNAc(b1-3)[GlcNAc(b1-6)]Gal(b1-4)GlcNAc
# Outline: as §1
# [23] = molecular target: Gal(b1-4)GlcNAc(b1-6)Gal(b1-4)GlcNAc
# Outline: as §1
# [24] = molecular target: Gal(b1-4)GlcNAc(b1-6)GalNAc
# Outline: as §1
# [25] = molecular target: Gal(b1-4)GlcNAc(b1-6)[Gal(b1-3)]GalNAc
# Outline: as §1
# [26] = molecular target: Gal(b1-4)GlcNAc(b1-6)[Gal(b1-4)GlcNAc(b1-3)]GalNAc
# Outline: as §1
# Gal(b1-4)GlcNAc6P = molecular target: Gal(b1-4)GlcNAc6P
# Outline: as §1
# Gal(b1-6)Gal = molecular target: Gal(b1-6)Gal
# Outline: as §1
# Gal3S(b1-3)GalNAc = molecular target: Gal3S(b1-3)GalNAc
# Outline: as §1
# Gal3S(b1-3)GlcNAc = molecular target: Gal3S(b1-3)GlcNAc
# Outline: as §1
# [27] = molecular target: Gal3S(b1-3)[Fuc(a1-4)]GlcNAc
# Outline: as §1
# Gal3S(b1-4)Glc = molecular target: Gal3S(b1-4)Glc
# Outline: as §1
# Gal3S(b1-4)Glc6S = molecular target: Gal3S(b1-4)Glc6S
# Outline: as §1
# Gal3S(b1-4)GlcNAc = molecular target: Gal3S(b1-4)GlcNAc
# Outline: as §1
# [28] = molecular target: Gal3S(b1-4)[Fuc(a1-3)]Glc6S
# Outline: as §1
# [29] = molecular target: Gal3S(b1-4)[Fuc(a1-3)]GlcNAc
# Outline: as §1
# [30] = molecular target: Gal3S(b1-4)[Fuc(a1-3)]GlcNAc6S
# Outline: as §1
# Gal3S4S(b1-4)GlcNAc = molecular target: Gal3S4S(b1-4)GlcNAc
# Outline: as §1
# Gal3S6S(b1-4)GlcNAc = molecular target: Gal3S6S(b1-4)GlcNAc
# Outline: as §1
# Gal3S6S(b1-4)GlcNAc6S = molecular target: Gal3S6S(b1-4)GlcNAc6S
# Outline: as §1
# Gal4S(b1-4)GlcNAc = molecular target: Gal4S(b1-4)GlcNAc
# Outline: as §1
# Gal4S6S(b1-4)GlcNAc = molecular target: Gal4S6S(b1-4)GlcNAc
# Outline: as §1
# Gal6P(b1-4)GlcNAc = molecular target: Gal6P(b1-4)GlcNAc
# Outline: as §1
# Gal6S(b1-3)GlcNAc = molecular target: Gal6S(b1-3)GlcNAc
# Outline: as §1
# Gal6S(b1-3)GlcNAc6S = molecular target: Gal6S(b1-3)GlcNAc6S
# Outline: as §1
binder,measurement,setting,value
B1,glycan array binding signal (z-score),[1],2.68
same,glycan array binding signal (z-score),[2],0.892
same,glycan array binding signal (z-score),[3],3.44
same,glycan array binding signal (z-score),[4],2.01
same,glycan array binding signal (z-score),[5],3.04
same,glycan array binding signal (z-score),[6],4.24
same,glycan array binding signal (z-score),[7],4.41
same,glycan array binding signal (z-score),[8],5.03
same,glycan array binding signal (z-score),[9],4.24
same,glycan array binding signal (z-score),[10],4.44
same,glycan array binding signal (z-score),[11],4.06
same,glycan array binding signal (z-score),[12],6.46
same,glycan array binding signal (z-score),[13],6.39
same,glycan array binding signal (z-score),[14],4.39
same,glycan array binding signal (z-score),[15],0.14
same,glycan array binding signal (z-score),[16],0.129
same,glycan array binding signal (z-score),[17],0.076
same,glycan array binding signal (z-score),[18],-0.321
same,glycan array binding signal (z-score),[19],-0.238
same,glycan array binding signal (z-score),[20],-0.11
same,glycan array binding signal (z-score),[21],-0.216
same,glycan array binding signal (z-score),[22],-0.225
same,glycan array binding signal (z-score),[23],-0.281
same,glycan array binding signal (z-score),[24],-0.216
same,glycan array binding signal (z-score),[25],-0.296
same,glycan array binding signal (z-score),[26],-0.244
same,glycan array binding signal (z-score),Gal(b1-4)GlcNAc6P,-0.309
same,glycan array binding signal (z-score),Gal(b1-6)Gal,-0.339
same,glycan array binding signal (z-score),Gal3S(b1-3)GalNAc,-0.289
same,glycan array binding signal (z-score),Gal3S(b1-3)GlcNAc,-0.173
same,glycan array binding signal (z-score),[27],-0.223
same,glycan array binding signal (z-score),Gal3S(b1-4)Glc,-0.211
same,glycan array binding signal (z-score),Gal3S(b1-4)Glc6S,-0.261
same,glycan array binding signal (z-score),Gal3S(b1-4)GlcNAc,-0.224
same,glycan array binding signal (z-score),[28],-0.203
same,glycan array binding signal (z-score),[29],-0.344
same,glycan array binding signal (z-score),[30],-0.15
same,glycan array binding signal (z-score),Gal3S4S(b1-4)GlcNAc,-0.291
same,glycan array binding signal (z-score),Gal3S6S(b1-4)GlcNAc,-0.289
same,glycan array binding signal (z-score),Gal3S6S(b1-4)GlcNAc6S,-0.276
same,glycan array binding signal (z-score),Gal4S(b1-4)GlcNAc,-0.329
same,glycan array binding signal (z-score),Gal4S6S(b1-4)GlcNAc,-0.28
same,glycan array binding signal (z-score),Gal6P(b1-4)GlcNAc,-0.299
same,glycan array binding signal (z-score),Gal6S(b1-3)GlcNAc,-0.225
same,glycan array binding signal (z-score),Gal6S(b1-3)GlcNAc6S,-0.274
